Binding signal data for 31 molecules are collected here from publication PMC9911399, “Two distinct binding modes provide the RNA-binding protein RbFox with extraordinary sequence specificity”.

Substitutions are numbered along the chain they refer to; changes in the protein carry UniProt numbers. The list shows a part of the results.

B1: ACAGUUU (DNA:RNA)
RNA: GGGAGACCGGAAUUCAGAUUGUCCACAGUUUUUAAAUCCCGUCGUAGCCACCA
DNA 1: CAATCTGAATTCCGGTCTCCC
DNA 2: TGGTGGCTACGACGGGATT
B2: UCACAUC (DNA:RNA)
RNA: B1 RNA with A25U, G28C, U29A, U31C
DNA 1: CAATCTGAATTCCGGTCTCCC
DNA 2: TGGTGGCTACGACGGGATT
B3: UGUAUGU (DNA:RNA)
RNA: B1 RNA with A25U, C26G, A27U, G28A, U30G
DNA 1: CAATCTGAATTCCGGTCTCCC
DNA 2: TGGTGGCTACGACGGGATT
B4: UAUUCCC (DNA:RNA)
RNA: GGGAGACCGGAAUUCAGAUUGUCCUAUUCCCUUAAAUCCCGUCGUAGCCACCA
DNA 1: CAATCTGAATTCCGGTCTCCC
DNA 2: TGGTGGCTACGACGGGATT
B5: UCCCUAG (DNA:RNA)
RNA: B1 RNA with A25U, A27C, G28C, U30A, U31G
DNA 1: CAATCTGAATTCCGGTCTCCC
DNA 2: TGGTGGCTACGACGGGATT
B6: GGGCGGC (DNA:RNA)
RNA: B4 RNA with U25G, A26G, U27G, U28C, C29G, C30G
DNA 1: CAATCTGAATTCCGGTCTCCC
DNA 2: TGGTGGCTACGACGGGATT
B7: GUAAGCG (DNA:RNA)
RNA: B1 RNA with A25G, C26U, G28A, U29G, U30C, U31G
DNA 1: CAATCTGAATTCCGGTCTCCC
DNA 2: TGGTGGCTACGACGGGATT
B8: UAGUUCA (DNA:RNA)
RNA: B4 RNA with U27G, C29U, C31A
DNA 1: CAATCTGAATTCCGGTCTCCC
DNA 2: TGGTGGCTACGACGGGATT
B9: UGACCAG (DNA:RNA)
RNA: B4 RNA with A26G, U27A, U28C, C30A, C31G
DNA 1: CAATCTGAATTCCGGTCTCCC
DNA 2: TGGTGGCTACGACGGGATT
B10: CUGGCUG (DNA:RNA)
RNA: B1 RNA with A25C, C26U, A27G, U29C, U31G
DNA 1: CAATCTGAATTCCGGTCTCCC
DNA 2: TGGTGGCTACGACGGGATT
B11: GAACGCU (DNA:RNA)
RNA: B1 RNA with A25G, C26A, G28C, U29G, U30C
DNA 1: CAATCTGAATTCCGGTCTCCC
DNA 2: TGGTGGCTACGACGGGATT
B12: CCUGCAU (DNA:RNA)
RNA: B1 RNA with A25C, A27U, U29C, U30A
DNA 1: CAATCTGAATTCCGGTCTCCC
DNA 2: TGGTGGCTACGACGGGATT
B13: CCAUGGC (DNA:RNA)
RNA: B1 RNA with A25C, G28U, U29G, U30G, U31C
DNA 1: CAATCTGAATTCCGGTCTCCC
DNA 2: TGGTGGCTACGACGGGATT
B14: AGGGUCC (DNA:RNA)
RNA: B1 RNA with C26G, A27G, U30C, U31C
DNA 1: CAATCTGAATTCCGGTCTCCC
DNA 2: TGGTGGCTACGACGGGATT
B15: GGGGCAU (DNA:RNA)
RNA: B1 RNA with A25G, C26G, A27G, U29C, U30A
DNA 1: CAATCTGAATTCCGGTCTCCC
DNA 2: TGGTGGCTACGACGGGATT
B16: AAUUUCA (DNA:RNA)
RNA: B4 RNA with U25A, C29U, C31A
DNA 1: CAATCTGAATTCCGGTCTCCC
DNA 2: TGGTGGCTACGACGGGATT
B17: CAUGAAG (DNA:RNA)
RNA: B4 RNA with U25C, U28G, C29A, C30A, C31G
DNA 1: CAATCTGAATTCCGGTCTCCC
DNA 2: TGGTGGCTACGACGGGATT
B18: CUUUGCU (DNA:RNA)
RNA: B4 RNA with U25C, A26U, C29G, C31U
DNA 1: CAATCTGAATTCCGGTCTCCC
DNA 2: TGGTGGCTACGACGGGATT
B19: UUGUGCA (DNA:RNA)
RNA: B4 RNA with A26U, U27G, C29G, C31A
DNA 1: CAATCTGAATTCCGGTCTCCC
DNA 2: TGGTGGCTACGACGGGATT
B20: AUCACGG (DNA:RNA)
RNA: B1 RNA with C26U, A27C, G28A, U29C, U30G, U31G
DNA 1: CAATCTGAATTCCGGTCTCCC
DNA 2: TGGTGGCTACGACGGGATT
B21: GGUAUUG (DNA:RNA)
RNA: B1 RNA with A25G, C26G, A27U, G28A, U31G
DNA 1: CAATCTGAATTCCGGTCTCCC
DNA 2: TGGTGGCTACGACGGGATT
B22: GCUCGCC (DNA:RNA)
RNA: B4 RNA with U25G, A26C, U28C, C29G
DNA 1: CAATCTGAATTCCGGTCTCCC
DNA 2: TGGTGGCTACGACGGGATT
B23: UUAGGAA (DNA:RNA)
RNA: B1 RNA with A25U, C26U, U29G, U30A, U31A
DNA 1: CAATCTGAATTCCGGTCTCCC
DNA 2: TGGTGGCTACGACGGGATT
B24: UGUCACA (DNA:RNA)
RNA: B4 RNA with A26G, U28C, C29A, C31A
DNA 1: CAATCTGAATTCCGGTCTCCC
DNA 2: TGGTGGCTACGACGGGATT
B25: GCUGGCC (DNA:RNA)
RNA: B4 RNA with U25G, A26C, U28G, C29G
DNA 1: CAATCTGAATTCCGGTCTCCC
DNA 2: TGGTGGCTACGACGGGATT
B26: UAGCUGC (DNA:RNA)
RNA: B4 RNA with U27G, U28C, C29U, C30G
DNA 1: CAATCTGAATTCCGGTCTCCC
DNA 2: TGGTGGCTACGACGGGATT
B27: GCUUGCA (DNA:RNA)
RNA: B4 RNA with U25G, A26C, C29G, C31A
DNA 1: CAATCTGAATTCCGGTCTCCC
DNA 2: TGGTGGCTACGACGGGATT
B28: GUCACAC (DNA:RNA)
RNA: B4 RNA with U25G, A26U, U27C, U28A, C30A
DNA 1: CAATCTGAATTCCGGTCTCCC
DNA 2: TGGTGGCTACGACGGGATT
B29: UACAAAC (DNA:RNA)
RNA: B4 RNA with U27C, U28A, C29A, C30A
DNA 1: CAATCTGAATTCCGGTCTCCC
DNA 2: TGGTGGCTACGACGGGATT
B30: GAAACCA (DNA:RNA)
RNA: B4 RNA with U25G, U27A, U28A, C31A
DNA 1: CAATCTGAATTCCGGTCTCCC
DNA 2: TGGTGGCTACGACGGGATT
B31: CCGUAUU (DNA:RNA)
RNA: B1 RNA with A25C, A27G, G28U, U29A
DNA 1: CAATCTGAATTCCGGTCTCCC
DNA 2: TGGTGGCTACGACGGGATT

This assay has as its target T1, RBFOX1 RRM (Homo sapiens, UniProt Q9NWB1 109-208).
T1 sequence: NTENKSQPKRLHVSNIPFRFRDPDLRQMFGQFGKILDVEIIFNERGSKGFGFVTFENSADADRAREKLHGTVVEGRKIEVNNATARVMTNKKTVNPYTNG
In words: EMSA; HiTS-Eq, 1 nM pool, 10 min; buffer printed only for the single-RNA assays: 10 mM Tris pH 7.5, 150 mM NaCl, 3.4 mM EDTA, 0.001% NP-40, 30 C. Particulars: tags: His6 N-terminal (pET28a); label: 5' 32P. A digest of the protocol:
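Purified wild-type or mutant RbFox RRM at increasing concentrations was equilibrated with 1 nM of 5′-radiolabelled RNA carrying 7 randomized nucleotides for 10 min in 50 µL. Unbound RNA was separated by 8% native PAGE and sequenced. Relative association constants came from read-count changes of each RNA species compared with the control reaction, normalised to the cognate motif.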
B1: the binding signal is 0.0041 KA relative to UGCAUGU. As for B2, the binding signal was 0.00136 KA relative to UGCAUGU.

Regarding B3, the binding signal was 0.0297 KA relative to UGCAUGU. B4: the binding signal is 0.00154 KA relative to UGCAUGU.

Turning to B5, the binding signal is 0.00644 KA relative to UGCAUGU. In the case of B6, the binding signal was 0.0231 KA relative to UGCAUGU. For the molecule B7, the binding signal was 0.0139 KA relative to UGCAUGU. With B8 the figure was 0.00722 KA relative to UGCAUGU. On to B9, for which the binding signal was 0.0127 KA relative to UGCAUGU. With B10, the binding signal was 0.0348 KA relative to UGCAUGU. Take B11: the binding signal is 0.0123 KA relative to UGCAUGU.

As to B12, the binding signal was 0.0157 KA relative to UGCAUGU.

For B13, the binding signal is 0.0106 KA relative to UGCAUGU. On to B14, for which the binding signal was 0.0256 KA relative to UGCAUGU. Consider B15, for which the binding signal was 0.0283 KA relative to UGCAUGU.

Regarding B16, the binding signal was 0.00313 KA relative to UGCAUGU. As to B17, the binding signal is 0.00725 KA relative to UGCAUGU. With B18 the figure was 0.021 KA relative to UGCAUGU; with B19, 0.0279 KA relative to UGCAUGU; with B20, 0.00619 KA relative to UGCAUGU. For B21, the binding signal was 0.0177 KA relative to UGCAUGU.

As to B22, the binding signal is 0.0193 KA relative to UGCAUGU. Consider B23, for which the binding signal is 0.00453 KA relative to UGCAUGU. In the case of B24, the binding signal was 0.00919 KA relative to UGCAUGU. B25: the binding signal was 0.0186 KA relative to UGCAUGU. As for B26, the binding signal was 0.0179 KA relative to UGCAUGU. For the molecule B27, the binding signal is 0.0329 KA relative to UGCAUGU. B28: the binding signal is 0.00436 KA relative to UGCAUGU. For the molecule B29, the binding signal was 0.000235 KA relative to UGCAUGU.

Regarding B30, the binding signal was 0.00223 KA relative to UGCAUGU. Take B31: the binding signal was 0.00422 KA relative to UGCAUGU.
